Results published in the supplement of paper PMC11876631.
± gives the standard deviation of the averaged measurements. Laboratory Escherichia coli strains with one amino-acid change in an essential protein, pooled on minimal glucose agar with carbenicillin or gentamicin at twice the control MIC (plus kanamycin and chloramphenicol for the plasmids), 48 h. Fold change of barcode share against drug-free plates; higher = less susceptible. Active = above 20 in both replicates (the paper's putatively resistant). '<' = one read or none on drug, '>' = one read or none on a drug-free plate. Shares are relative, so most strains fall below 1 when a few take over. Listed are strains with at least 15 reads on both drug-free plates, and hits; most hits rest on fewer reference reads. Replicate rank correlation about 0.5. Edits are read from barcodes.

Molecular target: Escherichia coli (laboratory strain)
Assay: barcode share on antibiotic plates over drug-free plates; higher = less susceptible
Protocol: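 A pool of E. coli strains, each edited to carry one amino-acid change in an essential protein, was grown for 48 h on minimal glucose agar with or without antibiotic; strain barcodes were sequenced; mean of two replicates.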

[1] = antibiotic: carbenicillin, 2× MIC (3.1 µg/mL)
[2] = antibiotic: gentamicin, 2× MIC (MIC 0.45 µg/mL)

B1: fabA M141A (protein)
chain: MVDKRESYTKEDLLASGRGELFGAKGPQLPAPNMLMMDRVVKMTETGGNFDKGYVEAELDINPDLWFFGCHFIGDPVMPGCLGLDAMWQLVGFYLGWLGGEGKGRALGVGEVKFTGQVLPTAKKVTYRIHFKRIVNRRLIAGLADGEVLVDGRLIYTASDLKVGLFQDTSAF
fold change of barcode share [1]: 0.339 ± 0.053
fold change of barcode share [2]: 0.0211 ± 0.022

B2: fabA M141Q (protein)
chain: MVDKRESYTKEDLLASGRGELFGAKGPQLPAPNMLMMDRVVKMTETGGNFDKGYVEAELDINPDLWFFGCHFIGDPVMPGCLGLDAMWQLVGFYLGWLGGEGKGRALGVGEVKFTGQVLPTAKKVTYRIHFKRIVNRRLIQGLADGEVLVDGRLIYTASDLKVGLFQDTSAF
fold change of barcode share [1]: 0.245 ± 0.031
fold change of barcode share [2]: 0.0155 ± 0.019

B3: fabA M141W (protein)
chain: MVDKRESYTKEDLLASGRGELFGAKGPQLPAPNMLMMDRVVKMTETGGNFDKGYVEAELDINPDLWFFGCHFIGDPVMPGCLGLDAMWQLVGFYLGWLGGEGKGRALGVGEVKFTGQVLPTAKKVTYRIHFKRIVNRRLIWGLADGEVLVDGRLIYTASDLKVGLFQDTSAF
fold change of barcode share [1]: 0.432 ± 0.17
fold change of barcode share [2]: 0.0061 ± 0.002

B4: fabA M141P (protein)
chain: MVDKRESYTKEDLLASGRGELFGAKGPQLPAPNMLMMDRVVKMTETGGNFDKGYVEAELDINPDLWFFGCHFIGDPVMPGCLGLDAMWQLVGFYLGWLGGEGKGRALGVGEVKFTGQVLPTAKKVTYRIHFKRIVNRRLIPGLADGEVLVDGRLIYTASDLKVGLFQDTSAF
fold change of barcode share [1]: 0.226 ± 0.11

B5: argA L400Q (protein)
chain: MVKERKTELVEGFRHSVPYINTHRGKTFVIMLGGEAIEHENFSSIVNDIGLLHSLGIRLVVVYGARPQIDANLAAHHHEPLYHKNIRVTDAKTLELVKQAAGTLQLDITARLSMSLNNTPLQGAHINVVSGNFIIAQPLGVDDGVDYCHSGRIRRIDEDAIHRQLDSGAIVLMGPVAVSVTGESFNLTSEEIATQLAIKLKAEKMIGFCSSQGVTNDDGDIVSELFPNEAQARVEAQEEKGDYNSGTVRFLRGAVKACRSGVRRCHLISYQEDGALLQELFSRDGIGTQIVMESAEQIRRATINDIGGILELIRPLEQQGILVRRSREQLEMEIDKFTIIQRDNTTIACAALYPFPEEKIGEMACVAVHPDYRSSSRGEVLLERIAAQAKQSGLSKLFVQTTRSIHWFQERGFTPVDIDLLPESKKQLYNYQRKSKVLMADLG
fold change of barcode share [1]: 0.4474 ± 0.00065
fold change of barcode share [2]: < 0.0077

B6: fabB L9A (protein)
chain: MKRAVITGAGIVSSIGNNQQEVLASLREGRSGITFSQELKDSGMRSHVWGNVKLDTTGLIDRKVVRFMSDASIYAFLSMEQAIADAGLSPEAYQNNPRVGLIAGSGGGSPRFQVFGADAMRGPRGLKAVGPYVVTKAMASGVSACLATPFKIHGVNYSISSACATSAHCIGNAVEQIQLGKQDIVFAGGGEELCWEMACEFDAMGALSTKYNDTPEKASRTYDAHRDGFVIAGGGGMVVVEELEHALARGAHIYAEIVGYGATSDGADMVAPSGEGAVRCMKMAMHGVDTPIDYLNSHGTSTPVGDVKELAAIREVFGDKSPAISATKAMTGHSLGAAGVQEAIYSLLMLEHGFIAPSINIEELDEQAAGLNIVTETTDRELTTVMSNSFGFGGTNATLVMRKLKD
fold change of barcode share [1]: 0.136 ± 0.038
fold change of barcode share [2]: 1.86 ± 2.1

B7: fabB V12A (protein)
chain: MKRAVITGLGIASSIGNNQQEVLASLREGRSGITFSQELKDSGMRSHVWGNVKLDTTGLIDRKVVRFMSDASIYAFLSMEQAIADAGLSPEAYQNNPRVGLIAGSGGGSPRFQVFGADAMRGPRGLKAVGPYVVTKAMASGVSACLATPFKIHGVNYSISSACATSAHCIGNAVEQIQLGKQDIVFAGGGEELCWEMACEFDAMGALSTKYNDTPEKASRTYDAHRDGFVIAGGGGMVVVEELEHALARGAHIYAEIVGYGATSDGADMVAPSGEGAVRCMKMAMHGVDTPIDYLNSHGTSTPVGDVKELAAIREVFGDKSPAISATKAMTGHSLGAAGVQEAIYSLLMLEHGFIAPSINIEELDEQAAGLNIVTETTDRELTTVMSNSFGFGGTNATLVMRKLKD
fold change of barcode share [1]: 0.265 ± 0.013
fold change of barcode share [2]: 0.24 ± 0.3

B8: fabB V12W (protein)
chain: MKRAVITGLGIWSSIGNNQQEVLASLREGRSGITFSQELKDSGMRSHVWGNVKLDTTGLIDRKVVRFMSDASIYAFLSMEQAIADAGLSPEAYQNNPRVGLIAGSGGGSPRFQVFGADAMRGPRGLKAVGPYVVTKAMASGVSACLATPFKIHGVNYSISSACATSAHCIGNAVEQIQLGKQDIVFAGGGEELCWEMACEFDAMGALSTKYNDTPEKASRTYDAHRDGFVIAGGGGMVVVEELEHALARGAHIYAEIVGYGATSDGADMVAPSGEGAVRCMKMAMHGVDTPIDYLNSHGTSTPVGDVKELAAIREVFGDKSPAISATKAMTGHSLGAAGVQEAIYSLLMLEHGFIAPSINIEELDEQAAGLNIVTETTDRELTTVMSNSFGFGGTNATLVMRKLKD
fold change of barcode share [1]: 0.505 ± 0.26
fold change of barcode share [2]: 0.217 ± 0.29

B9: fabB V12Q (protein)
chain: MKRAVITGLGIQSSIGNNQQEVLASLREGRSGITFSQELKDSGMRSHVWGNVKLDTTGLIDRKVVRFMSDASIYAFLSMEQAIADAGLSPEAYQNNPRVGLIAGSGGGSPRFQVFGADAMRGPRGLKAVGPYVVTKAMASGVSACLATPFKIHGVNYSISSACATSAHCIGNAVEQIQLGKQDIVFAGGGEELCWEMACEFDAMGALSTKYNDTPEKASRTYDAHRDGFVIAGGGGMVVVEELEHALARGAHIYAEIVGYGATSDGADMVAPSGEGAVRCMKMAMHGVDTPIDYLNSHGTSTPVGDVKELAAIREVFGDKSPAISATKAMTGHSLGAAGVQEAIYSLLMLEHGFIAPSINIEELDEQAAGLNIVTETTDRELTTVMSNSFGFGGTNATLVMRKLKD
fold change of barcode share [1]: 0.285 ± 0.16
fold change of barcode share [2]: 0.078 ± 0.079

B10: fabB L9Q (protein)
chain: MKRAVITGQGIVSSIGNNQQEVLASLREGRSGITFSQELKDSGMRSHVWGNVKLDTTGLIDRKVVRFMSDASIYAFLSMEQAIADAGLSPEAYQNNPRVGLIAGSGGGSPRFQVFGADAMRGPRGLKAVGPYVVTKAMASGVSACLATPFKIHGVNYSISSACATSAHCIGNAVEQIQLGKQDIVFAGGGEELCWEMACEFDAMGALSTKYNDTPEKASRTYDAHRDGFVIAGGGGMVVVEELEHALARGAHIYAEIVGYGATSDGADMVAPSGEGAVRCMKMAMHGVDTPIDYLNSHGTSTPVGDVKELAAIREVFGDKSPAISATKAMTGHSLGAAGVQEAIYSLLMLEHGFIAPSINIEELDEQAAGLNIVTETTDRELTTVMSNSFGFGGTNATLVMRKLKD
fold change of barcode share [1]: 0.202 ± 0.068
fold change of barcode share [2]: 0.517 ± 0.59

B11: fabB L9W (protein)
chain: MKRAVITGWGIVSSIGNNQQEVLASLREGRSGITFSQELKDSGMRSHVWGNVKLDTTGLIDRKVVRFMSDASIYAFLSMEQAIADAGLSPEAYQNNPRVGLIAGSGGGSPRFQVFGADAMRGPRGLKAVGPYVVTKAMASGVSACLATPFKIHGVNYSISSACATSAHCIGNAVEQIQLGKQDIVFAGGGEELCWEMACEFDAMGALSTKYNDTPEKASRTYDAHRDGFVIAGGGGMVVVEELEHALARGAHIYAEIVGYGATSDGADMVAPSGEGAVRCMKMAMHGVDTPIDYLNSHGTSTPVGDVKELAAIREVFGDKSPAISATKAMTGHSLGAAGVQEAIYSLLMLEHGFIAPSINIEELDEQAAGLNIVTETTDRELTTVMSNSFGFGGTNATLVMRKLKD
fold change of barcode share [1]: 0.308 ± 0.095
fold change of barcode share [2]: 0.0845 ± 0.091

B12: fabB V12D (protein)
chain: MKRAVITGLGIDSSIGNNQQEVLASLREGRSGITFSQELKDSGMRSHVWGNVKLDTTGLIDRKVVRFMSDASIYAFLSMEQAIADAGLSPEAYQNNPRVGLIAGSGGGSPRFQVFGADAMRGPRGLKAVGPYVVTKAMASGVSACLATPFKIHGVNYSISSACATSAHCIGNAVEQIQLGKQDIVFAGGGEELCWEMACEFDAMGALSTKYNDTPEKASRTYDAHRDGFVIAGGGGMVVVEELEHALARGAHIYAEIVGYGATSDGADMVAPSGEGAVRCMKMAMHGVDTPIDYLNSHGTSTPVGDVKELAAIREVFGDKSPAISATKAMTGHSLGAAGVQEAIYSLLMLEHGFIAPSINIEELDEQAAGLNIVTETTDRELTTVMSNSFGFGGTNATLVMRKLKD
fold change of barcode share [1]: 0.12 ± 0.056

B13: fabB I102Q (protein)
chain: MKRAVITGLGIVSSIGNNQQEVLASLREGRSGITFSQELKDSGMRSHVWGNVKLDTTGLIDRKVVRFMSDASIYAFLSMEQAIADAGLSPEAYQNNPRVGLQAGSGGGSPRFQVFGADAMRGPRGLKAVGPYVVTKAMASGVSACLATPFKIHGVNYSISSACATSAHCIGNAVEQIQLGKQDIVFAGGGEELCWEMACEFDAMGALSTKYNDTPEKASRTYDAHRDGFVIAGGGGMVVVEELEHALARGAHIYAEIVGYGATSDGADMVAPSGEGAVRCMKMAMHGVDTPIDYLNSHGTSTPVGDVKELAAIREVFGDKSPAISATKAMTGHSLGAAGVQEAIYSLLMLEHGFIAPSINIEELDEQAAGLNIVTETTDRELTTVMSNSFGFGGTNATLVMRKLKD
fold change of barcode share [1]: 0.25 ± 0.13

B14: fabB I170A (protein)
chain: MKRAVITGLGIVSSIGNNQQEVLASLREGRSGITFSQELKDSGMRSHVWGNVKLDTTGLIDRKVVRFMSDASIYAFLSMEQAIADAGLSPEAYQNNPRVGLIAGSGGGSPRFQVFGADAMRGPRGLKAVGPYVVTKAMASGVSACLATPFKIHGVNYSISSACATSAHCAGNAVEQIQLGKQDIVFAGGGEELCWEMACEFDAMGALSTKYNDTPEKASRTYDAHRDGFVIAGGGGMVVVEELEHALARGAHIYAEIVGYGATSDGADMVAPSGEGAVRCMKMAMHGVDTPIDYLNSHGTSTPVGDVKELAAIREVFGDKSPAISATKAMTGHSLGAAGVQEAIYSLLMLEHGFIAPSINIEELDEQAAGLNIVTETTDRELTTVMSNSFGFGGTNATLVMRKLKD
fold change of barcode share [1]: 0.473 ± 0.26
fold change of barcode share [2]: 0.0132 ± 0.007
